# According to the supplement of paper PMC8728848:
# The list shows a part of the results.
# B1: OrfX (Escherichia coli), Q9X4B6_ECOLX (protein)
# chain: MIKIARIAVTLGLLSSLGAQAYAAGLVVNDNDLRNDLAWLSDRGVIHLSLSTWPLSQEEIARALKKAKPSYSSEQVVLARINQRLSALKADFRVTGYTSTDQPGTPQGFGQTQPADNSLGLAFNNSGEWWDVHLQGNVEGGERISNGSRFNANGAYGAVKFWNQWLSFGQVPQWWGPGYEGSLIRGDAMRPMTGFLMQRAEQAAPETWWLRWVGPWQYQISASQMNQYTAVPHAKIIGGRFTFTPFQSLELGASRIMQWGGEGRPQSFSSFWDGFTGHDNTGTDNEPGNQLAGFDFKFKLEPTLGWPVSFYGQMVGEDESGYLPSANMFLGGVEGHHGWGKDTVNWYVEAHDTRTNMSRTNYSYTHHIYKDGYYQQGYPLGDAMGGDGQLIAGKVELITEDNQRWSTRLVYAKVNPENQSINKAFPHADTLKGLQLGWSGDVYQSVRLNTSLWYTNANNSDSDDVGASAGIEIPFSL
# Tests used:
# Experiment in all cases: glycan array binding signal (z-score within array); higher = stronger binding
# Details in all cases: glycan notation: IUPAC condensed, linker removed
# [1] = molecular target: Fuc(a1-2)Gal(b1-4)GlcNAc(b1-3)Gal(b1-4)GlcNAc(b1-3)Gal(b1-4)GlcNAc
# Method in brief: (§1)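 The binding signal is a Z-score computed within each array. Data were drawn from 3228 arrays in the Consortium for Functional Glycomics database, restricted to those with a known protein sequence. Scores were averaged over arrays of the same protein sequence at different concentrations or buffers, and over linkers, and negative values can be taken as non-binding.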
# [2] = molecular target: Fuc(a1-2)Gal(b1-4)GlcNAc(b1-3)GalNAc
# Method in brief: as §1
# [3] = molecular target: Fuc(a1-2)Gal(b1-4)GlcNAc(b1-3)[Fuc(a1-2)Gal(b1-4)GlcNAc(b1-6)]GalNAc
# Method in brief: as §1
# [4] = molecular target: Fuc(a1-2)Gal(b1-4)GlcNAc(b1-6)GalNAc
# Method in brief: as §1
# [5] = molecular target: Fuc(a1-2)Gal(b1-4)GlcNAc6S
# Method in brief: as §1
# [6] = molecular target: Fuc(a1-2)Gal(b1-4)[Fuc(a1-3)]GlcNAc
# Method in brief: as §1
# [7] = molecular target: Fuc(a1-2)Gal(b1-4)[Fuc(a1-3)]GlcNAc(b1-2)Man(a1-3)[Fuc(a1-2)Gal(b1-4)[Fuc(a1-3)]GlcNAc(b1-2)Man(a1-6)]Man(b1-4)GlcNAc(b1-4)GlcNAc
# Method in brief: as §1
# [8] = molecular target: Fuc(a1-2)Gal(b1-4)[Fuc(a1-3)]GlcNAc(b1-2)Man(a1-6)[Fuc(a1-2)Gal(b1-4)[Fuc(a1-3)]GlcNAc(b1-2)Man(a1-3)]Man(b1-4)GlcNAc(b1-4)[Fuc(a1-6)]GlcNAc
# Method in brief: as §1
# [9] = molecular target: Fuc(a1-2)Gal(b1-4)[Fuc(a1-3)]GlcNAc(b1-2)[Fuc(a1-2)Gal(b1-4)[Fuc(a1-3)]GlcNAc(b1-4)]Man(a1-3)[Fuc(a1-2)Gal(b1-4)[Fuc(a1-3)]GlcNAc(b1-2)Man(a1-6)]Man(b1-4)GlcNAc(b1-4)GlcNAc
# Method in brief: as §1
# [10] = molecular target: Fuc(a1-2)Gal(b1-4)[Fuc(a1-3)]GlcNAc(b1-3)Gal(b1-4)[Fuc(a1-3)]GlcNAc
# Method in brief: as §1
# [11] = molecular target: Fuc(a1-2)Gal(b1-4)[Fuc(a1-3)]GlcNAc(b1-3)Gal(b1-4)[Fuc(a1-3)]GlcNAc(b1-3)Gal(b1-4)[Fuc(a1-3)]GlcNAc
# Method in brief: as §1
# [12] = molecular target: Fuc(a1-2)Gal(b1-4)[Fuc(a1-3)]GlcNAc(b1-3)GalNAc
# Method in brief: as §1
# [13] = molecular target: Fuc(a1-2)Gal(b1-4)[Fuc(a1-3)]GlcNAc(b1-3)[Neu5Ac(a2-6)Gal(b1-4)GlcNAc(b1-6)]Gal(b1-4)Glc
# Method in brief: as §1
# [14] = molecular target: Fuc(a1-2)Gal6S(b1-3)GlcNAc
# Method in brief: as §1
# [15] = molecular target: Fuc(a1-2)Gal6S(b1-3)GlcNAc6S
# Method in brief: as §1
# [16] = molecular target: Fuc(a1-2)Gal6S(b1-4)Glc
# Method in brief: as §1
# [17] = molecular target: Fuc(a1-2)Gal6S(b1-4)Glc6S
# Method in brief: as §1
# [18] = molecular target: Fuc(a1-2)Gal6S(b1-4)GlcNAc
# Method in brief: as §1
# [19] = molecular target: Fuc(a1-2)[Gal(a1-3)]Gal
# Method in brief: as §1
# [20] = molecular target: Fuc(a1-2)[Gal(a1-3)]Gal(b1-3)GalNAc
# Method in brief: as §1
# [21] = molecular target: Fuc(a1-2)[Gal(a1-3)]Gal(b1-3)GlcNAc
# Method in brief: as §1
# [22] = molecular target: Fuc(a1-2)[Gal(a1-3)]Gal(b1-3)GlcNAc(b1-2)Man(a1-3)[Fuc(a1-2)[Gal(a1-3)]Gal(b1-3)GlcNAc(b1-2)Man(a1-6)]Man(b1-4)GlcNAc(b1-4)GlcNAc
# Method in brief: as §1
# [23] = molecular target: Fuc(a1-2)[Gal(a1-3)]Gal(b1-3)GlcNAc(b1-2)Man(a1-3)[Fuc(a1-2)[Gal(a1-3)]Gal(b1-3)GlcNAc(b1-2)Man(a1-6)]Man(b1-4)GlcNAc(b1-4)[Fuc(a1-6)]GlcNAc
# Method in brief: as §1
# [24] = molecular target: Fuc(a1-2)[Gal(a1-3)]Gal(b1-3)GlcNAc(b1-3)GalNAc
# Method in brief: as §1
# [25] = molecular target: Fuc(a1-2)[Gal(a1-3)]Gal(b1-4)Glc
# Method in brief: as §1
# [26] = molecular target: Fuc(a1-2)[Gal(a1-3)]Gal(b1-4)GlcNAc
# Method in brief: as §1
# [27] = molecular target: Fuc(a1-2)[Gal(a1-3)]Gal(b1-4)GlcNAc(b1-2)Man(a1-3)[Fuc(a1-2)[Gal(a1-3)]Gal(b1-4)GlcNAc(b1-2)Man(a1-6)]Man(b1-4)GlcNAc(b1-4)GlcNAc
# Method in brief: as §1
# [28] = molecular target: Fuc(a1-2)[Gal(a1-3)]Gal(b1-4)GlcNAc(b1-2)Man(a1-3)[Fuc(a1-2)[Gal(a1-3)]Gal(b1-4)GlcNAc(b1-2)Man(a1-6)]Man(b1-4)GlcNAc(b1-4)[Fuc(a1-6)]GlcNAc
# Method in brief: as §1
# [29] = molecular target: Fuc(a1-2)[Gal(a1-3)]Gal(b1-4)GlcNAc(b1-3)GalNAc
# Method in brief: as §1
# [30] = molecular target: Fuc(a1-2)[Gal(a1-3)]Gal(b1-4)GlcNAc(b1-6)GalNAc
# Method in brief: as §1
# [31] = molecular target: Fuc(a1-2)[Gal(a1-3)]Gal(b1-4)[Fuc(a1-3)]Glc
# Method in brief: as §1
# [32] = molecular target: Fuc(a1-2)[Gal(a1-3)]Gal(b1-4)[Fuc(a1-3)]GlcNAc
# Method in brief: as §1
# [33] = molecular target: Fuc(a1-2)[Gal(a1-3)]Gal(b1-4)[Fuc(a1-3)]GlcNAc(b1-3)GalNAc
# Method in brief: as §1
# [34] = molecular target: Fuc(a1-2)[Gal(a1-4)]Gal(b1-4)GlcNAc
# Method in brief: as §1
# [35] = molecular target: Fuc(a1-2)[GalNAc(a1-3)]Gal
# Method in brief: as §1
# [36] = molecular target: Fuc(a1-2)[GalNAc(a1-3)]Gal(b1-3)GalNAc(a1-3)[Fuc(a1-2)]Gal(b1-4)GlcNAc
# Method in brief: as §1
# [37] = molecular target: Fuc(a1-2)[GalNAc(a1-3)]Gal(b1-3)GlcNAc
# Method in brief: as §1
binder,measurement,setting,value
B1,glycan array binding signal (z-score),[1],-0.266
same,glycan array binding signal (z-score),[2],-0.189
same,glycan array binding signal (z-score),[3],0.429
same,glycan array binding signal (z-score),[4],-0.061
same,glycan array binding signal (z-score),[5],-0.226
same,glycan array binding signal (z-score),[6],0.036
same,glycan array binding signal (z-score),[7],0.202
same,glycan array binding signal (z-score),[8],0.689
same,glycan array binding signal (z-score),[9],-0.108
same,glycan array binding signal (z-score),[10],-0.147
same,glycan array binding signal (z-score),[11],-0.02
same,glycan array binding signal (z-score),[12],4.3
same,glycan array binding signal (z-score),[13],-0.235
same,glycan array binding signal (z-score),[14],-0.184
same,glycan array binding signal (z-score),[15],0.634
same,glycan array binding signal (z-score),[16],-0.214
same,glycan array binding signal (z-score),[17],0.009
same,glycan array binding signal (z-score),[18],-0.201
same,glycan array binding signal (z-score),[19],-0.329
same,glycan array binding signal (z-score),[20],-0.162
same,glycan array binding signal (z-score),[21],-0.133
same,glycan array binding signal (z-score),[22],-0.295
same,glycan array binding signal (z-score),[23],-0.247
same,glycan array binding signal (z-score),[24],-0.143
same,glycan array binding signal (z-score),[25],-0.382
same,glycan array binding signal (z-score),[26],-0.179
same,glycan array binding signal (z-score),[27],-0.19
same,glycan array binding signal (z-score),[28],-0.047
same,glycan array binding signal (z-score),[29],-0.295
same,glycan array binding signal (z-score),[30],-0.144
same,glycan array binding signal (z-score),[31],-0.132
same,glycan array binding signal (z-score),[32],-0.297
same,glycan array binding signal (z-score),[33],-0.091
same,glycan array binding signal (z-score),[34],-0.32
same,glycan array binding signal (z-score),[35],-0.116
same,glycan array binding signal (z-score),[36],-0.154
same,glycan array binding signal (z-score),[37],0.002
